Measurements reported in US20190062414A1 (PHILOGEN S P A, published 2019).

Columns and labels:
human lysozyme [1] = target: T1, human lysozyme (human, UniProt P61626 19-148); assay: Biacore (SPR), scFv over CM5 chip coated with native human lysozyme
T1 construct: mature; Coated on a CM5 chip for Biacore; also called commercial native human lysozyme (from human neutrophils); Cat-No. L8402
T1 sequence (looked up): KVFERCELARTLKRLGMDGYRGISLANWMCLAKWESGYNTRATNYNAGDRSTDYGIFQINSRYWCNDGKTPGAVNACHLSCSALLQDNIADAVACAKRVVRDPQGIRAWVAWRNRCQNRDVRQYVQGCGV
Procedure: CT01 was analysed for antigen binding by Biacore using a CM5 chip coated with commercial native human lysozyme (from human neutrophils; Cat-No. L8402; SIGMA) to a final coating density of 2000 resonance units (RU). The flow rate for the Biacore analysis was set at 20 μL/min.

[2] = target: T2, D domain of human Tenascin-C (human, UniProt P24821 1622-1711, limits assumed); assay: Biacore (SPR), scFv over CM5 chip coated with D domain of human tenascin-C
T2 construct: domain: D domain; Coated on a CM5 chip; also called domain D of human Tenascin-C; human tenascin-C D domain
T2 sequence (looked up): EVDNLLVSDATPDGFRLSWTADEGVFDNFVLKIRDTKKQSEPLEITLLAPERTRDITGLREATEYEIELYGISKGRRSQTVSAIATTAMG

[3] = target: T3, BCD domains of murine tenascin-C (murine, UniProt Q80YX1 1349-1620, limits assumed); assay: Biacore (SPR), scFv over CM5 chip coated with BCD domain of murine tenascin-C
T3 construct: domain: BCD domains; Coated on a CM5 chip; also called domain BCD of murine Tenascin-C
T3 sequence (looked up): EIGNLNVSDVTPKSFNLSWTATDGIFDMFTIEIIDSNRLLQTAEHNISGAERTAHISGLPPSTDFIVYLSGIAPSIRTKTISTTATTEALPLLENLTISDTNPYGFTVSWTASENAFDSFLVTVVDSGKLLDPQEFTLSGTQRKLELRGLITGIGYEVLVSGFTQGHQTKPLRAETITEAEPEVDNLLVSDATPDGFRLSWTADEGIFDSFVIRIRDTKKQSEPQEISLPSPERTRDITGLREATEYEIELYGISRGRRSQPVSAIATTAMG

human lysozyme [4] = target: T1, human lysozyme; assay: immunofluorescence on fixed, permeabilised HT29 cells, SIP format, 5 µg/ml
Procedure: Coverslips were placed into culture dishes (100 mm×20 mm), and HT29 cells (both human adenocarcinoma cell lines) were then seeded at 100,000 cells/mL in the culture dishes respectively. The culture was incubated until proper confluency was reached. Cells were fixed and permeabilized by ice-cold methanol incubation at −20° C. Cells were then blocked with 10% FBS/2% BSA. Affinity-purified antibody CT01, in SIP format (final concentration 5 μg/ml) was first incubated with the cells, followed by incubation with a rabbit anti-human IgE antibody (1:500 dilution; DAKO). The antibody was then detected with goat anti-rabbit IgG Alexa 488 (1:1000 dilution; Invitrogen). DAPI was used for nuclei staining. The anti-hen egg Lysozyme SIP antibody (KSF) was used as an isotype-negative control for the staining.

B1: scFv(CT01) (scFv)
scFv: [letters of about 100 residues omitted]PAPRARFDYWGQGTLVTVSSGGGGSGGGGSGGGGSSELTQDPAVSVALGQTVRITCQGDSLRSYYASWYQQKPGQAPVLVIYGKNNRPSGIPDRFSGSSSGNTASLTITGAQAEDEADYYCNSSPTPAPGVVFGGGTKLTVLG
notes: also called anti-human lysozyme antibody CT01
A Kd (human lysozyme [1]) of 890 nM, a koff (human lysozyme [1]) of 0.0077 s⁻¹ and a kon (human lysozyme [1]) of 8720 M⁻¹ s⁻¹ were found for B1 in this work.

B2: scFv(CPR01.1) (scFv)
scFv: [letters of about 100 residues omitted]GGAPFDYWGQGTLVTVSSGGGGSGGGGSGGGGSSELTQDPAVSVALGQTVRITCQGDSLRSYYASWYQQKPGQAPVLVIYGKNNRPSGIPDRFSGSSSGNTASLTITGAQAEDEADYYCNSSLRGTLPVVFGGGTKLTVLG
A Kd [2] of 850 nM, a koff [2] of 0.067 s⁻¹ and a kon [2] of 78300 M⁻¹ s⁻¹ were found for B2 in this work. The Kd [3] was 430 nM, the koff [3] was 0.064 s⁻¹ and the kon [3] was 150000 M⁻¹ s⁻¹.

B3: CT01 in SIP format (other)
chain: [letters of about 100 residues omitted]PAPRARFDYWGQGTLVTVSSGGGGSGGGGSGGGGSSELTQDPAVSVALGQTVRITCQGDSLRSYYASWYQQKPGQAPVLVIYGKNNRPSGIPDRFSGSSSGNTASLTITGAQAEDEADYYCNSSPTPAPGVVFGGGTKLTVLGSGGSGGPRAAPEVYAFATPEWPGSRDKRTLACLIQNFMPEDISVQWLHNEVQLPDARHSTTQPRKTKGSGFFVFSRLEVTRAEWEQKDEFICRAVHEAASPSQTVQRAVSVNPESSRRGGC
notes: Small immunoprotein: scFv fused to the CH4 domain of human IgE; also called SIP(CT01)
B3: binds (human lysozyme [4]).
